The supplement of paper PMC10126150
Values marked as one replicate rest on one cluster of the flow cell; about a third of the high ones do not repeat.

tested on: ATP; assay: switch fluorescence ratio, 500 uM ATP over buffer (Cy3 cluster intensity, sum of 5 cycles each) (fold (ratio)); higher = stronger signal-on switching upon ATP binding; sequences stand for … in TCGTCGGCAGCGTCAGATGTGTATAAGAGACAGTTTTTTTTTTTTTTTTTTTTTTTTT…TC; settings: aptamer strand: ATP DNA aptamer (quencher-CACCTGGGGGAGTATTGCGGAGGAAGG + anchor), 100 nM annealed; ATP concentration: 500 uM; one replicate
Outline: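 Cy3-labelled switching-strand clusters on a modified Illumina MiSeq flow-cell were annealed to 100 nM quencher-labelled ATP aptamer and imaged first in selection buffer, then after 15 min with 500 uM ATP at 22 °C. NaOH stripping and re-annealing separated each of five buffer/ATP cycles, and clusters outside 100-1000 RFU were excluded. The fluorescence ratio sums target-cycle Cy3 intensity over buffer-cycle Cy3 intensity per cluster and averages it per switch-domain sequence.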
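Note: ATP exposure 15 min at 22 °C before imaging.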

Sequence	switch fluorescence ratio
TGGAAGGCGG	1.07
TTCGCAGCAT	6.42
TGGACGCCTC	1.05
GTTTATCCTT	1.04
GGTGCATGAA	0.987
TCCTTCCGTT	1.25
GTATGTATGG	1.01
ACCGTTTTCT	1.04
TGTAACAAA	0.989
CTGGTGATAA	1
GATACTTTTC	1.01
AAAGCTTCGT	1.33
ATCGGGTCTC	0.988
GGGTTTGCAG	1.05
GGATGAGGTC	1
TTCCTTTGTC	1.09
AGAAGGCTTT	0.987
TTTCTAACCT	0.964
CCTTGGGTAA	1.06
AGAGATCGTT	1.06
TTTGTGGGCT	1.12
TGGTTCAGAT	1.01
AGTAGACGGG	0.977

Sequence	switch fluorescence ratio
TCATACGATG	1.02
TTGTGTACAC	0.957
AACGGTGTGG	1
ATGCTCCATC	0.981
TTCTGAGGG	0.921
TCGTGCTGTG	0.988
GCTGGACTCA	1.04
GGAAATCTGT	1.05
CCAATTACGT	1.1
CATATAGTCA	1.01
TATCCTTACG	1.14
TTTAGGACT	1.01
TAGTTTGACC	1.03
ACGCTGAGCC	1.05
AAGTGTGCTA	0.989
TGGTGGAAGG	0.971
GTGAGAGGG	1
AGAAAGCTGG	1.02
TAGCGAATGG	1.08
ACTACGTATG	1.01
TTGCATGAAT	0.98
ACTTACCTAT	1.17
CTAACCTGTT	1.03

Sequence	switch fluorescence ratio
TAGGATCATG	0.996
AGGAGTCAAT	1.13
CATTAGTCTG	1.01
ACATTCCGAA	1.2
CCAGCAGCCC	1.96
CATCGGGCG	1.01
GCTGGCCTAA	1.02
GCAGTCCATA	0.965
TTTACACGGA	0.997
TACGCTGTT	1
TTCAGCCAAC	1.03
GATGAAGTTA	1.02
GGGAAAACTG	0.979
TGAAGCGGGA	1.02
AATCAGGAT	0.978
AGTGGCGTGC	0.982
GCTGCGTAGC	1.02
GGAGGAACAA	0.952
TTCTCACCTA	1.06
CGAGATGAGA	1.04
GTTGCAGGAC	1.41
GTGCTTTGTG	0.959
GCTTGCCGTG	1.02

Sequence	switch fluorescence ratio
CATGGCTTAC	1.52
CAGATGAAA	1.01
CTGATGAAGT	0.976
GTGTGTATGC	0.98
AGAATTTTGG	0.969
TTGGCTCCGG	1.04
ATTCCGGGAT	1
ATATGAGTGT	0.943
TTGGCGCACG	0.991
TTCAAGTTGA	0.982
CTGGGATCGT	0.964
GTGGGAGCAC	1.02
CCCGTCGGAC	1.61
CCTTGTACGT	1.05
GGGAGTATTG	0.968
CGGGTATACG	1.03
TAACCAGAAC	1.14
AAATGAGATA	1
CAATAATCAA	1
AGACCGACCC	2.3
AAATCTAATT	0.962
TGCTATGCCG	1.05
TGTAATTTT	1.04

Sequence	switch fluorescence ratio
CGGGATGGC	1.03
AAAAGGGTAA	0.983
ACCTCAATGG	1
AATTGTCGGA	0.99
ACAGCAGTTT	0.983
CAGAACCACT	1.03
CTAGAAGATG	1.01
AGCCTCATGT	1
CCGTGGCCCC	3.21
ATAAACTCTA	1.02
TCCTTTTTC	1.05
AAAGTTCTGC	0.97
AGAAAAGGTC	1.09
AAAACTTGCG	1.03
CCATAGTAAT	4.76
TGACTAAG	1.04
AGCTATGGCT	0.981
ATAACGGGTT	1.2
TCCACGCACG	1.77
GAGTGTAATG	1
ATGTCCCCAG	0.977
AAGGCAGCTA	1.01
ACTAGACTTA	1.09

Sequence	switch fluorescence ratio
TGGTCCAGC	1.01
ATACGCTGAT	1.1
TAACATTAAT	1.04
TTAATCCGAG	1.07
CTTATACTAG	1.05
AATTCTAAAA	0.974
AGGTCGAAAT	0.995
ATCTGAACGG	1
TTCTCGAGAC	0.99
CGATTGCGGT	1.06
TTTTATAGAG	0.999
ACGTTTGCCT	0.924
AAGAGCTACA	1.01
AAGAAAACAG	0.98
GCCTTTGACA	0.987
TCACCCTGGG	1.05
AATATAGAGG	0.974
TGGGCGAGG	1.02
AGATTATTCA	0.991
CGTTAGCCC	1.01
TAGGCGGCTT	1
TGTATCAAAC	1.02
AACGTAATCA	1.11

Sequence	switch fluorescence ratio
ATTCCTTATG	1.01
TACGGACAC	1.42
GGGCACTAGC	1.05
GTACTAAGTA	1.06
AACGCATCGT	0.985
AGCTTTATT	1.01
GGCCCCGTGT	1.05
CTTTGCAGCG	0.953
TAACGGGTGC	1.17
TGCCGCTGAG	1.05
CCAGGGCGGT	1.09
CAGTAAGCCT	1.02
CCACTTTGAA	1
GTTACGGATC	1.02
GGCTAATGAC	1.01
GGGAGCGATT	1.02
TCATAACCTT	1.72
TTAGATGATT	1.02
GCAGGTCATA	1.01
